Patent publication US10322110B2, “Imidazole-based antimicrobial agents” (priority 2014, dated 2019)

Key:
[1] = tested on: Streptococcus pneumoniae (Chester, ATCC49619); test: broth microdilution MIC assay, Streptococcus pneumoniae; format: cell-based; conditions: MIC100 class score, 24 h
[2] = tested on: Staphylococcus aureus MSSA (Newman); test: broth microdilution MIC assay, Staphylococcus aureus MSSA (Newman); format: cell-based; conditions: MIC100 class score, 24 h
[3] = tested on: Staphylococcus aureus MRSA (COL); test: broth microdilution MIC assay, Staphylococcus aureus MRSA (COL); format: cell-based; conditions: MIC100 class score, 24 h
[4] = tested on: Human keratinocytes (HaCaT cells); test: human cytotoxicity assay in vitro (CellTiter-Glo), keratinocytes; format: cell-based; set-up: key: 4: compounds inhibiting cell viability 50% or more at concentrations of 5 μM or less; 3: compounds causing more than 50% inhibition of cell viability at 10 μM; compounds causing >50% inhibition of cell viability at 25 μM; 1: compounds causing less than 50% inhibition of cell viability at 50 μM; compounds not causing loss of cell viability at concentrations of 50 μM or higher; conditions: cytotoxicity class
[5] = tested on: Human hepatocytes (HepaRG cells); test: human cytotoxicity assay in vitro (CellTiter-Glo), hepatocytes; format: cell-based; conditions: cytotoxicity class
[6] = tested on: Mycobacterium smegmatis (mc(2)155, ATCC700084); test: broth microdilution MIC assay, Mycobacterium smegmatis; conditions: MIC activity class

| Structure (SMILES) | Antibacterial activity Streptococcus pneumoniae [1] | Antibacterial activity Staphylococcus aureus (MSSA) [2] | Antibacterial activity Staphylococcus aureus (MRSA) [3] | cytotoxicity cell line K (keratinocytes) [4] | cytotoxicity cell line H (hepatocytes) [5] | Antibacterial activity MS (Mycobacterium smegmatis) [6] |
| --- | --- | --- | --- | --- | --- | --- |
| Cc1nc(-c2ccc(-c3ccccc3OC(F)(F)F)o2)[nH]c1-c1ccccc1Cl [Compound 19] | 4 (MIC of 1 μg/ml or less for preventing streptococcal growth 100% (MIC100)) | 1 (MIC100 of 20-50 μg/ml or an MIC50 of <10 μg/ml) | 1 (MIC100 of 20-50 μg/ml or an MIC50 of <10 μg/ml) | 0 (compounds not causing loss of cell viability at concentrations of 50 μM or higher) | – | – |
| Cc1nc(-c2ccc(-c3ccccc3C(F)(F)F)o2)[nH]c1-c1ccccc1Cl [Compound 20] | 4 (MIC of 1 μg/ml or less for preventing streptococcal growth 100% (MIC100)) | 1 (MIC100 of 20-50 μg/ml or an MIC50 of <10 μg/ml) | – | 0 (compounds not causing loss of cell viability at concentrations of 50 μM or higher) | – | – |
| CCc1ccc(-c2[nH]c(-c3ccc(-c4ccccc4C(F)(F)F)o3)nc2C)cc1 [Compound 28] | – | 1 (MIC100 of 20-50 μg/ml or an MIC50 of <10 μg/ml) | – | 0 (compounds not causing loss of cell viability at concentrations of 50 μM or higher) | 1 (compounds not causing a loss of viability at concentrations between 25 and 50 μM) | – |
| Cc1[nH]c(-c2ccc(-c3cccc(C(F)(F)F)c3)o2)nc1-c1ccc(F)cc1 [Compound 38] | – | 4 (MIC of ≥1 μg/ml to 3 μg/ml for preventing staphylococcal growth 100% (MIC100)) | – | 2 | 1 (compounds not causing a loss of viability at concentrations between 25 and 50 μM) | – |
| Cc1nc(-c2ccc(-c3ccc(Cl)c(OC(F)(F)F)c3)o2)[nH]c1-c1ccccc1 [Compound 41] | – | – | – | 2 | – | 1 (MIC100 of 20-50 μg/ml or an MIC50 of <10 μg/ml) |
| Cc1[nH]c(-c2ccc(-c3ccc(Cl)c(C(F)(F)F)c3)o2)nc1-c1ccc(F)cc1 [Compound 42] | 4 (MIC of 1 μg/ml or less for preventing streptococcal growth 100% (MIC100)) | 4 (MIC of ≥1 μg/ml to 3 μg/ml for preventing staphylococcal growth 100% (MIC100)) | – | 3 | 1 (compounds not causing a loss of viability at concentrations between 25 and 50 μM) | 1 (MIC100 of 20-50 μg/ml or an MIC50 of <10 μg/ml) |
| Cc1nc(-c2ccc(-c3ccc(Cl)c(OC(F)(F)F)c3)o2)[nH]c1-c1ccc(Cl)cc1 [Compound 44] | 4 (MIC of 1 μg/ml or less for preventing streptococcal growth 100% (MIC100)) | 4 (MIC of ≥1 μg/ml to 3 μg/ml for preventing staphylococcal growth 100% (MIC100)) | – | – | – | 1 (MIC100 of 20-50 μg/ml or an MIC50 of <10 μg/ml) |
| Cc1[nH]c(-c2ccc(-c3ccc(C(F)(F)F)cc3)s2)nc1-c1ccccc1 [Compound 46] | – | – | – | 1 | 1 (compounds not causing a loss of viability at concentrations between 25 and 50 μM) | 1 (MIC100 of 20-50 μg/ml or an MIC50 of <10 μg/ml) |
| Cc1[nH]c(-c2ccc(-c3ccc(C(F)(F)F)cc3)o2)nc1-c1ccc(Cl)cc1 [Compound 47] | 4 (MIC of 1 μg/ml or less for preventing streptococcal growth 100% (MIC100)) | 4 (MIC of ≥1 μg/ml to 3 μg/ml for preventing staphylococcal growth 100% (MIC100)) | – | 2 | 1 (compounds not causing a loss of viability at concentrations between 25 and 50 μM) | – |
| FC(F)(F)Oc1ccccc1-c1ccc(-c2nc(Cl)c(-c3ccccc3)[nH]2)o1 [Compound 64] | 4 (MIC of 1 μg/ml or less for preventing streptococcal growth 100% (MIC100)) | – | – | 3 | – | 1 (MIC100 of 20-50 μg/ml or an MIC50 of <10 μg/ml) |
